Experimental data reported in the supplement of paper PMC8728848.
Some of the results follow.

Experiments:
Test in all cases: glycan array binding signal (z-score within array); higher = stronger binding
Details in all cases: glycan notation: IUPAC condensed, linker removed
[1] = target: Neu5Ac(a2-3)Gal6S(b1-4)[Fuc(a1-3)]GlcNAc
Summary of the method: (§1)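 Arrays were curated from the Consortium for Functional Glycomics database, 3228 in total, and kept only where the protein sequence was available. Binding is expressed as a within-array Z-score. This score was averaged across arrays of the same protein sequence at different concentrations or buffers and across linkers, and negative values can be read as non-binding.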

[2] = target: Neu5Ac(a2-3)GalNAc
Summary of the method: as §1

[3] = target: Neu5Ac(a2-3)GalNAc(b1-4)GlcNAc
Summary of the method: as §1

[4] = target: Neu5Ac(a2-3)[GalNAc(b1-4)]Gal(b1-4)Glc
Summary of the method: as §1

[5] = target: Neu5Ac(a2-3)[GalNAc(b1-4)]Gal(b1-4)GlcNAc
Summary of the method: as §1

[6] = target: Neu5Ac(a2-3)[GalNAc(b1-4)]Gal(b1-4)GlcNAc(b1-3)GalNAc
Summary of the method: as §1

[7] = target: Neu5Ac(a2-3)[Neu5Ac(a2-6)]GalNAc
Summary of the method: as §1

[8] = target: Neu5Ac(a2-6)Gal
Summary of the method: as §1

[9] = target: Neu5Ac(a2-6)Gal(b1-3)GlcNAc(b1-3)[Gal(b1-4)GlcNAc(b1-6)]Gal(b1-4)Glc
Summary of the method: as §1

[10] = target: Neu5Ac(a2-6)Gal(b1-4)Glc
Summary of the method: as §1

[11] = target: Neu5Ac(a2-6)Gal(b1-4)GlcNAc
Summary of the method: as §1

[12] = target: Neu5Ac(a2-6)Gal(b1-4)GlcNAc(b1-2)Man(a1-3)Man(b1-4)GlcNAc(b1-4)GlcNAc
Summary of the method: as §1

[13] = target: Neu5Ac(a2-6)Gal(b1-4)GlcNAc(b1-2)Man(a1-3)[Gal(b1-4)GlcNAc(b1-2)Man(a1-6)]Man(b1-4)GlcNAc(b1-4)GlcNAc
Summary of the method: as §1

[14] = target: Neu5Ac(a2-6)Gal(b1-4)GlcNAc(b1-2)Man(a1-3)[GlcNAc(b1-2)Man(a1-6)]Man(b1-4)GlcNAc(b1-4)GlcNAc
Summary of the method: as §1

[15] = target: Neu5Ac(a2-6)Gal(b1-4)GlcNAc(b1-2)Man(a1-3)[GlcNAc(b1-2)Man(b1-4)GlcNAc(b1-2)Man(a1-6)]Man(b1-4)GlcNAc(b1-4)GlcNAc
Summary of the method: as §1

[16] = target: Neu5Ac(a2-6)Gal(b1-4)GlcNAc(b1-2)Man(a1-3)[Man(a1-6)]Man(b1-4)GlcNAc(b1-4)GlcNAc
Summary of the method: as §1

[17] = target: Neu5Ac(a2-6)Gal(b1-4)GlcNAc(b1-2)Man(a1-3)[Neu5Ac(a2-6)Gal(b1-4)GlcNAc(b1-2)Man(a1-6)]Man(b1-4)GlcNAc(b1-4)GlcNAc
Summary of the method: as §1

[18] = target: Neu5Ac(a2-6)Gal(b1-4)GlcNAc(b1-2)Man(a1-3)[Neu5Ac(a2-6)Gal(b1-4)GlcNAc(b1-2)Man(a1-6)]Man(b1-4)GlcNAc(b1-4)[Fuc(a1-6)]GlcNAc
Summary of the method: as §1

[19] = target: Neu5Ac(a2-6)Gal(b1-4)GlcNAc(b1-2)Man(a1-6)Man(b1-4)GlcNAc(b1-4)GlcNAc
Summary of the method: as §1

[20] = target: Neu5Ac(a2-6)Gal(b1-4)GlcNAc(b1-2)Man(a1-6)[Gal(b1-4)GlcNAc(b1-2)Man(a1-3)]Man(b1-4)GlcNAc(b1-4)GlcNAc
Summary of the method: as §1

[21] = target: Neu5Ac(a2-6)Gal(b1-4)GlcNAc(b1-2)Man(a1-6)[GlcNAc(b1-2)Man(a1-3)]Man(b1-4)GlcNAc(b1-4)GlcNAc
Summary of the method: as §1

[22] = target: Neu5Ac(a2-6)Gal(b1-4)GlcNAc(b1-2)Man(a1-6)[Man(a1-3)]Man(b1-4)GlcNAc(b1-4)GlcNAc
Summary of the method: as §1

[23] = target: Neu5Ac(a2-6)Gal(b1-4)GlcNAc(b1-3)Gal(b1-3)GlcNAc
Summary of the method: as §1

[24] = target: Neu5Ac(a2-6)Gal(b1-4)GlcNAc(b1-3)Gal(b1-4)GlcNAc
Summary of the method: as §1

[25] = target: Neu5Ac(a2-6)Gal(b1-4)GlcNAc(b1-3)Gal(b1-4)GlcNAc(b1-3)Gal(b1-4)GlcNAc
Summary of the method: as §1

[26] = target: Neu5Ac(a2-6)Gal(b1-4)GlcNAc(b1-3)Gal(b1-4)[Fuc(a1-3)]GlcNAc(b1-3)Gal(b1-4)[Fuc(a1-3)]GlcNAc
Summary of the method: as §1

[27] = target: Neu5Ac(a2-6)Gal(b1-4)GlcNAc(b1-3)GalNAc
Summary of the method: as §1

[28] = target: Neu5Ac(a2-6)Gal(b1-4)GlcNAc(b1-3)[Neu5Ac(a2-6)Gal(b1-4)GlcNAc(b1-6)]GalNAc
Summary of the method: as §1

[29] = target: Neu5Ac(a2-6)Gal(b1-4)GlcNAc(b1-6)GalNAc
Summary of the method: as §1

[30] = target: Neu5Ac(a2-6)Gal(b1-4)GlcNAc(b1-6)[Gal(b1-3)GlcNAc(b1-3)]Gal(b1-4)Glc
Summary of the method: as §1

[31] = target: Neu5Ac(a2-6)Gal(b1-4)GlcNAc6S
Summary of the method: as §1

[32] = target: Neu5Ac(a2-6)GalNAc
Summary of the method: as §1

[33] = target: Neu5Ac(a2-6)GalNAc(b1-4)GlcNAc
Summary of the method: as §1

[34] = target: Neu5Ac(a2-6)GalNAc(b1-4)GlcNAc6S
Summary of the method: as §1

[35] = target: Neu5Ac(a2-6)GlcNAc(b1-4)GlcNAc
Summary of the method: as §1

[36] = target: Neu5Ac(a2-6)GlcNAc(b1-4)GlcNAc(b1-4)GlcNAc
Summary of the method: as §1

[37] = target: Neu5Ac(a2-8)Neu5Ac
Summary of the method: as §1

[38] = target: Neu5Ac(a2-8)Neu5Ac(a2-3)Gal(b1-3)GalNAc(b1-4)[Neu5Ac(a2-8)Neu5Ac(a2-3)]Gal(b1-4)Glc
Summary of the method: as §1

[39] = target: Neu5Ac(a2-8)Neu5Ac(a2-3)Gal(b1-4)Glc
Summary of the method: as §1

[40] = target: Neu5Ac(a2-8)Neu5Ac(a2-3)[Gal(b1-3)GalNAc(b1-4)]Gal(b1-4)Glc
Summary of the method: as §1

[41] = target: Neu5Ac(a2-8)Neu5Ac(a2-3)[GalNAc(b1-4)]Gal(b1-4)Glc
Summary of the method: as §1

[42] = target: Neu5Ac(a2-8)Neu5Ac(a2-8)Neu5Ac
Summary of the method: as §1

[43] = target: Neu5Ac(a2-8)Neu5Ac(a2-8)Neu5Ac(a2-3)Gal(b1-4)Glc
Summary of the method: as §1

[44] = target: Neu5Ac(a2-8)Neu5Ac(a2-8)Neu5Ac(a2-3)[GalNAc(b1-4)]Gal(b1-4)Glc
Summary of the method: as §1

[45] = target: Neu5Ac(a2-8)Neu5Ac(a2-8)Neu5Ac(a2-8)Neu5Ac(a2-3)[GalNAc(b1-4)]Gal(b1-4)Glc
Summary of the method: as §1

[46] = target: Neu5Ac(b2-6)Gal(b1-4)GlcNAc
Summary of the method: as §1

[47] = target: Neu5Ac(b2-6)GalNAc
Summary of the method: as §1

[48] = target: Neu5Ac9Ac(a2-3)Gal(b1-3)GlcNAc
Summary of the method: as §1

[49] = target: Neu5Ac9Ac(a2-3)Gal(b1-4)GlcNAc
Summary of the method: as §1

[50] = target: Neu5Ac9Ac(a2-6)Gal(b1-4)GlcNAc
Summary of the method: as §1

[51] = target: Neu5Gc(a2-3)Gal(b1-3)GlcNAc
Summary of the method: as §1

[52] = target: Neu5Gc(a2-3)Gal(b1-3)[Fuc(a1-4)]GlcNAc
Summary of the method: as §1

[53] = target: Neu5Gc(a2-3)Gal(b1-4)Glc
Summary of the method: as §1

[54] = target: Neu5Gc(a2-3)Gal(b1-4)GlcNAc
Summary of the method: as §1

[55] = target: Neu5Gc(a2-3)Gal(b1-4)[Fuc(a1-3)]GlcNAc
Summary of the method: as §1

[56] = target: Neu5Gc(a2-6)Gal(b1-4)GlcNAc
Summary of the method: as §1

[57] = target: Neu5Gc(a2-6)GalNAc
Summary of the method: as §1

[58] = target: Neu5Gc(b2-6)Gal(b1-4)GlcNAc
Summary of the method: as §1

B1: CvGal1 (Crassostrea virginica), A7Y0I5 (protein)
chain: MTYQISKISQPFTSYIPNGLHIGKHLLLRGRVSYGTEAFAINLQQNPEPCNGEVAFHFNPRPGEQQCVRNSFDGGSWMDEERDQPHFPFDEGRSFTLRIEVAEEGFRTYVNGKPYVNFSHRLDLGNVHYLYLTEGAEFYDISYQDRYTLPYKSEIPQQMNVGKAVRIRGASQDNDGFSVNFACDPDNENCAFHFNPRPNEGVVVRNANLGGWGDEERDYEAEFPFHPYNYFDAMFICTDDKYLVHVNDKYFTEFNHRGGVDASSFFNIVGNLDIQDVEYFEPLEDDFVKTIPSGLVKGDVLIFRGFMKPGGDTFSINFMNGYSVEDDIAFHLNPRVGEGQVVMNCCMGGAWGDEEREDIPSPLADREPFEVKVVVKKNKFKVYVNGKKCMKFAARGNLEDIKGVNIKGEAYVYEVKLERKLEDSWEYLPGGFRVGGWVVVQAIPKKGSEGFAINFRTGSDEDSDIAFHFNPRLQENCTIRNSCAGGAWGGEERDQPDFPFEKKDTCEIAIQAQPDRFVTYVNGKRYIEFNHRLPLESITCVELTGRADFFEPKFF
[1]
  glycan array binding signal (z-score): -0.233
[2]
  glycan array binding signal (z-score): -0.266
[3]
  glycan array binding signal (z-score): -0.277
[4]
  glycan array binding signal (z-score): -0.269
[5]
  glycan array binding signal (z-score): -0.249
[6]
  glycan array binding signal (z-score): -0.275
[7]
  glycan array binding signal (z-score): -0.27
[8]
  glycan array binding signal (z-score): -0.286
[9]
  glycan array binding signal (z-score): -0.276
[10]
  glycan array binding signal (z-score): -0.255
[11]
  glycan array binding signal (z-score): -0.274
[12]
  glycan array binding signal (z-score): -0.277
[13]
  glycan array binding signal (z-score): -0.293
[14]
  glycan array binding signal (z-score): -0.285
[15]
  glycan array binding signal (z-score): -0.297
[16]
  glycan array binding signal (z-score): -0.178
[17]
  glycan array binding signal (z-score): -0.272
[18]
  glycan array binding signal (z-score): -0.241
[19]
  glycan array binding signal (z-score): -0.263
[20]
  glycan array binding signal (z-score): -0.275
[21]
  glycan array binding signal (z-score): -0.285
[22]
  glycan array binding signal (z-score): -0.248
[23]
  glycan array binding signal (z-score): -0.286
[24]
  glycan array binding signal (z-score): -0.291
[25]
  glycan array binding signal (z-score): -0.294
[26]
  glycan array binding signal (z-score): -0.28
[27]
  glycan array binding signal (z-score): -0.271
[28]
  glycan array binding signal (z-score): -0.277
[29]
  glycan array binding signal (z-score): -0.286
[30]
  glycan array binding signal (z-score): -0.245
[31]
  glycan array binding signal (z-score): -0.276
[32]
  glycan array binding signal (z-score): -0.228
[33]
  glycan array binding signal (z-score): -0.254
[34]
  glycan array binding signal (z-score): -0.281
[35]
  glycan array binding signal (z-score): -0.303
[36]
  glycan array binding signal (z-score): -0.266
[37]
  glycan array binding signal (z-score): -0.277
[38]
  glycan array binding signal (z-score): -0.273
[39]
  glycan array binding signal (z-score): -0.274
[40]
  glycan array binding signal (z-score): -0.239
[41]
  glycan array binding signal (z-score): -0.265
[42]
  glycan array binding signal (z-score): -0.236
[43]
  glycan array binding signal (z-score): -0.232
[44]
  glycan array binding signal (z-score): -0.265
[45]
  glycan array binding signal (z-score): -0.286
[46]
  glycan array binding signal (z-score): -0.174
[47]
  glycan array binding signal (z-score): -0.288
[48]
  glycan array binding signal (z-score): -0.297
[49]
  glycan array binding signal (z-score): -0.276
[50]
  glycan array binding signal (z-score): -0.285
[51]
  glycan array binding signal (z-score): -0.239
[52]
  glycan array binding signal (z-score): -0.284
[53]
  glycan array binding signal (z-score): -0.311
[54]
  glycan array binding signal (z-score): -0.262
[55]
  glycan array binding signal (z-score): -0.283
[56]
  glycan array binding signal (z-score): -0.244
[57]
  glycan array binding signal (z-score): -0.195
[58]
  glycan array binding signal (z-score): -0.285
